Measurements from patent US20250099622A1, “COMPOSITIONS AND METHODS FOR EXPRESSING THERAPEUTICS” (priority 2022, published 2025).

T1: Human NPR-B (R&D system) (human, UniProt P20594 23-458, limits assumed)
T1 construct: Bought protein immobilised on the Biacore chip; also called NBR-B; natriuretic peptide receptor B
T1 sequence (looked up): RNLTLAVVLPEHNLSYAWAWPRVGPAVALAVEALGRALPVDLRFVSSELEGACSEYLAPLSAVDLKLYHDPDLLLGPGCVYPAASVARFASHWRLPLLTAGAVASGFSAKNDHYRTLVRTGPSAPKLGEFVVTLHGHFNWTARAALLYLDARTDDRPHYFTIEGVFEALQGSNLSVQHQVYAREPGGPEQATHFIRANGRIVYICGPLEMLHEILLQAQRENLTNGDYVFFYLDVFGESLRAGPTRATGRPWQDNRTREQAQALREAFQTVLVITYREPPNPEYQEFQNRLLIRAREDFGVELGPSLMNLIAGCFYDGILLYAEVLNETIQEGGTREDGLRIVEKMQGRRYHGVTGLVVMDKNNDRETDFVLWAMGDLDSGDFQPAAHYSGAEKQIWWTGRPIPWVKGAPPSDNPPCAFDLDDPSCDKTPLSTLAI

B1: AMI088 (Fc1-(G4S)4-CNP36) (Fc fusion)
chain: [sequence of human IgG1 Fc omitted]GGGGSGGGGSGGGGSGGGGSEHPNARKYKGANKKGLSKGCFGLKLDRIGSMSGLGC
notes: Human IgG1 Fc, then (G4S)4, then CNP36; Purified on protein A from HEK293 culture; also called Fc1-CNP36; FC1-CNP
B2: AMI087 (CNP36-(G4S)4-Fc1) (Fc fusion)
chain: EHPNARKYKGANKKGLSKGCFGLKLDRIGSMSGLGCGGGGSGGGGSGGGGSGGGGS[sequence of human IgG1 Fc omitted]
notes: CNP36, then (G4S)4, then human IgG1 Fc; also called CNP36-F1; CNP36-4XGGGS-FC1
B3: Aflibercept-Fc4-CNP36: CNP fusion (Fc4-CNP36) with VEGF inhibitor (Aflibercept); probably the protein of AMI312, SEQ ID NO: 139 (protein)
chain: SDTGRPFVEMYSEIPEIIHMTEGRELVIPCRVTSPNITVTLKKFPLDTLIPDGKRIIWDSRKGFIISNATYKEIGLLTCEATVNGHLYKTNYLTHRQTNTIIDVVLSPSHGIELSVGEKLVLNCTARTELNVGIDFNWEYPSSKHQHKKLVNRDLKTQSGSEMKKFLSTLTIDGVTRSDQGLYTCAASSGLMTKKNSTFVRVHEKDKRV[sequence of human IgG4 Fc with S228P (EU numbers) omitted]GGGGSGGGGSGGGGSGGGGSEHPNARKYKGANKKGLSKGCFGLKLDRIGSMSGLGC
B4: AMI263 (Fc4-(G4S)4-CNP36) (Fc fusion)
chain: [sequence of human IgG4 Fc with S228P (EU numbers) and a few adjoining residues omitted]GGGGSGGGGSGGGGSGGGGSEHPNARKYKGANKKGLSKGCFGLKLDRIGSMSGLGC
notes: Human IgG4 Fc, then (G4S)4, then CNP36; also called Fc4-CNP36; FC4-CNP

Legend:
Human NPR-B (R&D system) [1] = target: T1, Human NPR-B (R&D system); assay: SPR (Biacore 3000), human NPR-B amine-coupled to CM5 chip, 1:1 Langmuir fit
Description: (§1) Kinetic parameters were calculated assuming a simple 1:1 (Langmuir) binding. […] All SPR analysis was performed on a BIAcore 3000 system using series CM5 sensor chips. Data processing and analysis were performed using BIAevaluation software. All sensorgrams were double referenced by subtracting the response on a reference flow cell and a blank sample. Human NPR-B (R&D system) was covalently attached to a CM5 chip via amine coupling. […] Kinetic parameters were calculated assuming a simple 1:1 (Langmuir) binding. […] All SPR analysis was performed on a BIAcore 3000 system using series CM5 sensor chips. Data processing and analysis were performed using BIAevaluation software. All sensorgrams were double referenced by subtracting the response on a reference flow cell and a blank sample. Human NPR-B (R&D system) was covalently attached to a CM5 chip via amine coupling. […] Kinetic parameters were calculated assuming a simple 1:1 (Langmuir) binding. […] All SPR analysis was performed on a BIAcore 3000 system using series CM5 sensor chips. Data processing and analysis were performed using BIAevaluation software. All sensorgrams were double referenced by subtracting the response on a reference flow cell and a blank sample. Human NPR-B (R&D system) was covalently attached to a CM5 chip via amine coupling.

[2] = test system: NIH3T3 cells (cGMP secreted); assay: EC50 for CNP-Fc constructs, cGMP ELISA of NIH3T3 supernatant; format: cell-based; settings: NIH3T3, 30 minutes, 1.8 mM IBMX, cGMP secreted by the cells; FIG. 25B
Description: EC50 for CNP-Fc described herein were measured by ELISA. 2.5E+05 NIH3T3 cells/well were plated. […] After 30 minutes, supernatant was collected for cGMP determined via ELISA. FIG. 25A illustrates a standard curve of cGMP.

Human NPR-B (R&D system) [3] = target: T1, Human NPR-B (R&D system); assay: SPR (Biacore), drawn table 'Kinetic affinity comparison'
Description: as §1

| Molecule | Kd (Human NPR-B (R&D system) [1]) [pM] | EC50 values (rank order) [2] | Comparison (kinetic affinity relative to Control P22) (Human NPR-B (R&D system) [3]) [x] |
| --- | --- | --- | --- |
| B1 | 0.695 |  |  |
| B2 | 419000 |  |  |
| B3 |  | CNP-22 ≡Fc4-CNP36>Aflibercept-Fc4-CNP36>Fc1-CNP36>>Fc4-CNP22 |  |
| B4 | 0.358 |  | 103 |
